Experimental data taken from PubChem BioAssay AID602310 (National Center for Advancing Translational Sciences (NCATS), 2012).
Hit rate of the full screen: of about 410,000 compounds, about 310 (0.076%) were called active. Inconclusive means that the source gave no clear call. Such entries were picked first, then a sample of the others. Calls come from the whole dose curve; as a rule, active = well fitted curve in the direction sought with a large enough effect; inconclusive = small, poorly fitted or top-dose-only effect; inactive = flat fitted curve, though single readings scatter. Potencies beside an inconclusive call are fits to weak or partial responses and may not hold up.

Target: DNA dC->dU-editing enzyme APOBEC-3G (Homo sapiens) (UniProt Q9HC16)
Chain of UniProt Q9HC16 (Q9HC16 whole entry, looked up): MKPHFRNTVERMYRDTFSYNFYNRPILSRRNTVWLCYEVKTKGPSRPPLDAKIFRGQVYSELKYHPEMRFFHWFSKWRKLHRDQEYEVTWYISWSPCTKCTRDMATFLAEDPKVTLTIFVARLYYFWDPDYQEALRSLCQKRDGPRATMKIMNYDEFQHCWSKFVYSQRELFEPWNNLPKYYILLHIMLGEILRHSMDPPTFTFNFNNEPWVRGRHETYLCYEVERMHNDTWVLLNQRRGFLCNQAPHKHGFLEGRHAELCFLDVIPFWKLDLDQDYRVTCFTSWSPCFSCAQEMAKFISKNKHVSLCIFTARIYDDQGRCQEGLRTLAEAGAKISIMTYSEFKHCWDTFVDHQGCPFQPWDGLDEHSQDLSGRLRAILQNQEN
Assay: qHTS for Inhibitors of Vif-A3G Interactions: qHTS; note: nearly all actives have a fitted effect of over 60% in size;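 for activity, negative = active: hits raise eYFP signal because A3G escapes Vif-driven loss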
Settings: HeLa A3G-eYFP + Vif (tagged APOBEC3G with the HIV-1 protein that degrades it), YFP fluorescence, overnight; series mostly up to 46.1 µM; activity, negative = active: at the top concentration
How it was run: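 Read-out is eYFP fluorescence (Ex 488/Em 500-530) from Vif-expressing HeLa A3G-eYFP cells; more signal means A3G escaped Vif-mediated degradation. Cells plated overnight, compound pinned in, incubated overnight at 37 deg C.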
% is set by controls: 0 for no effect and ±100 for the full control effect; potency is the fitted concentration of half-maximal effect; tags give direction and shape of the fitted curve.

Row | SMILES | Potency | activity, negative = active
1 | Cc1ccccc1Cn1c(=O)n(CCCCC(=O)NCc2ccc3c(c2)OCO3)c(=O)c2ccccc21 | inconclusive: 4.47 µM [inhibitor, full curve, poor fit] | 
2 | O=C(Nc1cccc(C(=O)N2CCCc3ccccc32)c1)c1ccccc1 | inconclusive: 6.31 µM [inhibitor, full curve] | 
3 | C(=N\Nc1nc(N2CCOCC2)nc(N2CCOCC2)n1)/c1ccncc1 |  | inactive: 1.42%
4 | CC(=NNC(=O)c1ccncc1)c1ccc2ccccc2c1O | inconclusive: 3.16 µM [inhibitor, single point] | 
5 | C=CCn1c(O)c(N=Nc2ccccc2O)c2ccccc21 | inconclusive: 28.2 µM [inhibitor, single point] | 
6 | COC(CNC(=O)c1ccc(-n2c(=S)[nH]c3ccccc3c2=O)cc1)OC |  | inactive: 0.345%
7 | CO/N=C/c1ccc(Oc2ccc([N+](=O)[O-])cc2[N+](=O)[O-])c(OC)c1 | inconclusive: 22.4 µM [inhibitor, single point] | 
8 | Cc1cc(Cl)c(S(=O)(=O)Nc2cc(S(=O)(=O)N3CCOCC3)ccc2F)cc1OCC(N)=O |  | inactive: -1.04%
9 | O=C(N/N=C\c1ccc(F)cc1)c1cc(OCC(F)(F)F)ccc1OCC(F)(F)F |  | inactive: -0.211%
10 | Cc1ccc(NC(=O)COC(=O)c2ccccc2OCC(=O)N(C)C)cc1 |  | inactive: -3.93%
11 | COc1ccc(C=NNC(=O)c2cc(C)oc2C)cc1O | inconclusive: 7.08 µM [inhibitor, partial curve, poor fit] | 
12 | COc1cc(OC)c2c(-c3cccc(-c4ccc(O)cc4)c3)cc(=O)oc2c1 | inconclusive: 0.631 µM [inhibitor, full curve, poor fit] | 
13 | CN(Cc1ccccc1)c1ccc(/C=C/c2nc3ccccc3s2)cc1 | inconclusive: 22.4 µM [inhibitor, single point] | 
14 | COc1ccc(-c2cc(C(F)F)n3ncc(C(=O)N4CCc5ccccc54)c3n2)cc1 | inconclusive: 1 µM [inhibitor, full curve] | 
15 | N#Cc1ccc(-c2cccnc2)nc1SCC(=O)Nc1sc2c(c1C#N)CCC2 | inconclusive: 15.8 µM [inhibitor, single point] | 
16 | COc1cc(CCC(=O)Nc2nnc(C)s2)cc(OC)c1OC | inconclusive: 6.31 µM [inhibitor, partial curve] | 
17 | O=C(NN=C1CCCC1)c1sc2ccccc2c1Cl |  | inactive: 5.37%
18 | c1ccc(Oc2c3ccccc3nc3ccccc23)cc1 | inconclusive: 28.2 µM [inhibitor, single point] | 
19 | O=C(NCc1cc(C(F)(F)F)ccc1Cl)c1cccc2c1C(=O)c1ccc(N3CCC(Cc4ccccc4)CC3)cc1S2(=O)=O | inconclusive: 12.6 µM [inhibitor, partial curve, poor fit] | 
20 | Cc1ccc(-c2cc(C(=O)NCCCN3CCOCC3)c3ccc(Cl)c(C)c3n2)cc1 |  | inactive: -0.0981%
21 | COc1ccc(/C=C2\CCc3ccccc3C2=O)cc1CN1CCOCC1 | inconclusive: 35.5 µM [inhibitor, single point] | 
22 | COc1cc(-c2cc3nc(NCc4ccco4)ccn3n2)cc(OC)c1OC | inconclusive: 35.5 µM [inhibitor, single point] | 

Row | SMILES | Potency | activity, negative = active
23 | COc1ccc(CCNC(=O)CC2(CC3=NS(=O)(=O)c4ccccc4N3)CCCC2)cc1OC | inconclusive: 12.6 µM [inhibitor, partial curve, poor fit] | 
24 | O=C(CCl)N1c2ccccc2SCC1c1ccccc1 (centres undefined) | inconclusive: 35.5 µM [inhibitor, single point] | 
25 | CCOC(=O)c1[nH]c(C)c(/C(O)=C2\C(=O)C(=O)N(CCCN3CCOCC3)C2c2cccnc2)c1C (centres undefined) |  | inactive: -4.15%
26 | CCC(Sc1nc2nccnc2c(=O)n1Cc1ccc(Cl)cc1)C(=O)NC1CCCCC1 (centres undefined) |  | inactive: -7.95%
27 | O=C(NC1CCCCC1)Oc1cc2oc(=O)sc2cc1Br | inconclusive: 35.5 µM [inhibitor, partial curve, poor fit] | 
28 | Cc1ccc(-c2cc(C(=O)N/N=C/c3c[nH]c4ccccc34)[nH]n2)cc1 | inconclusive: 2.51 µM [inhibitor, full curve, poor fit] | 
29 | CCOCCOC(=O)c1[nH]c2c(c1C)C(=O)CC(c1cccs1)C2 (centres undefined) | inconclusive: 0.562 µM [inhibitor, full curve, poor fit] | 
30 | CC1CCCN(c2ccc([N+](=O)[O-])cc2C(=O)c2ccccc2)C1 (centres undefined) | inconclusive: 0.631 µM [inhibitor, full curve, poor fit] | 
31 | CC(C)C(=O)Nc1nnc(NC(=S)Nc2ccccc2)s1 |  | inactive: 0.715%
32 | CSCCC(NC(=O)c1ccc(Cl)cc1)C(=O)OCC(=O)Nc1ccc(C#N)cc1 (centres undefined) |  | inactive: 0.968%
33 | O=C(Nc1ccc(F)cc1F)c1ccc(-n2cnc3cccnc32)cc1 |  | inactive: -2.08%
34 | CCOc1ccc(CNC(=O)c2cc3c(s2)-c2ccccc2OC3)cc1 |  | inactive: -2.96%
35 | CC1CC(C)CN(CCCNC(=O)c2ccc(CNS(=O)(=O)c3ccc(F)cc3)cc2)C1 (centres undefined) |  | inactive: 5.41%
36 | O=c1oc2ccc(Cl)cc2nc1/C=C(\O)c1ccco1 | inconclusive: 15.8 µM [inhibitor, single point] | 
37 | CC(=O)c1sc(N/N=C\c2c(O)ccc3ccccc23)nc1C | inconclusive: 6.31 µM [inhibitor, partial curve, poor fit] | 
38 | N#C/C(=C/c1ccc(N2CCCCC2)o1)c1cccc(F)c1 | inconclusive: 20 µM [inhibitor, partial curve, poor fit] | 
39 | CSc1ccc(-c2nnn(CC(=O)NCc3ccccc3)n2)cc1 | inconclusive: 11.2 µM [inhibitor, single point] | 
40 | CN(C)c1ccc(/C=C/C(=O)c2cc(Cl)ccc2O)cc1 |  | inactive: -9.05%
41 | COc1ccc2c(C)cc(SCC#N)nc2c1 | inconclusive: 20 µM [inhibitor, partial curve, poor fit] | 
42 | CCN1/C(=C/c2ccc3cc(C)cc(C)c3[n+]2CC)Sc2cc(C)ccc21 | inconclusive: 3.55 µM [inhibitor, partial curve, poor fit] | 
43 | O=C1c2cccc3cccc(c23)C(=O)C1(O)O | inconclusive: 22.4 µM [inhibitor, single point] | 
44 | CCOc1ccc(S(=O)(=O)N(CC(=O)NCc2ccncc2)c2ccc(C)cc2)cc1 | inconclusive: 22.4 µM [inhibitor, single point] | 
